This is one part of the list.
B1: chr12:76025442:76025543:-|3pUTR|ENSG00000139289|msi1|FALSE|unique (ssRNA)
RNA: GGGAGUUCUACAGUCCGACGAUCAUACACCAUCACAUUCAUGAAUUUUUUAGCAUGGUCAGAACUUGUGUAAAUAUGUCUCUUAGAUGAUUUUGGGGAGAUGUGAUUUAUUUUUCAUAUUUUCAAAAUGCAUUUCAUUUCAAACAACAGAGGAUUGAGCAUCA
B2: chr1:25360731:25360844:+|3pUTR|ENSG00000183726|unk|FALSE|unique (ssRNA)
RNA: GGGAGUUCUACAGUCCGACGAUCUUUUUUACUGCUCACUCCCAACCUUUUGUAAUGCCAUUUUCUAAACUUAUUUCUGAGUGUAGUCUCAGCUUAAAGUUGUGUAAUACUAAAAUCACGAGAACACCUAAACAACAACCAAAACAACAGAGGAUUGAGCAUCA
B3: chr1:92323927:92324037:+|CDS|ENSG00000122484|unk|FALSE|unique (ssRNA)
RNA: GGGAGUUCUACAGUCCGACGAUCAGUGCAGAGCAUUUUAAGAGAAAAUUUGCCAAAUCAAACCAAGUGUCUAGGUCAGUGUCUAGUUCAGUGCAGGUGUGUCCUGAAGUUGGAAAGAGAAACUUACUUAAAGUUUUGAAGGAGCAACAGAGGAUUGAGCAUCA
B4: ENSG00000165244:stop:overlap|stop_codon|ENSG00000165244|stop_codon|NA|stop_codon (ssRNA)
RNA: GGGAGUUCUACAGUCCGACGAUCUGCAUGGAGCCCUCGCGCUCAUAGAGCUUGCCAACCUGACUGGGGCGCCACUCCGACAGUAGCUUGGACACUGACUCUUCCACUGUACAAAAGUACUGCCCAGCAUACUUAAAAAGUAGACAACAGAGGAUUGAGCAUCA
B5: chr6:52501983:52502084:-|3pUTR|ENSG00000065308|msi1|FALSE|unique (ssRNA)
RNA: GGGAGUUCUACAGUCCGACGAUCGGCCGCCCUUGUUGAGUGUUCUUUGGAAUUGUCGUUUUUUGAGCACAACUACAGCAUUUUAGACUGCAUGAAACCAUGACUGACUGAGAGUCACUCUCUGGGUAGAUGAUAGGCGCCUUUCAACAGAGGAUUGAGCAUCA
B6: chr12:442458:442559:+|3pUTR|ENSG00000120647|unk|FALSE|unique (ssRNA)
RNA: GGGAGUUCUACAGUCCGACGAUCCCUGAGCAGAGCCUGAAUUACGUUUUUGGGCAAUUUCAUGGUGUUUCACCAGAGGGCGCUAGAGACUCAAACGAAAUGUCCAUCUGGAAAGAUUCGGGAGACACUUUGCCGAGGGGAUGACAACAGAGGAUUGAGCAUCA
B7: chr2:42282796:42282970:+|CDS|ENSG00000143924|unk|total|mutant (ssRNA)
RNA: GGGAGUUCUACAGUCCGACGAUCAUAUGGUUAUCGAGGAAAGGACUGCCGAGCUAAUGUUUACCUUCUUCCGACCGGGAAAACCGUUUAUUUCAUUGCAUCAGCCGCCGUACUAUUUAAUUAUGAGGAGAGAACUCAGCGACACAACAGAGGAUUGAGCAUCA
B8: chr16:21655520:21655610:+|3pUTR|ENSG00000197006|msi1_unk|total|mutant (ssRNA)
RNA: GGGAGUUCUACAGUCCGACGAUCUCUGUGUUCACAAUUACGUGAAGGGAGGACCCUUGGGGACCGCCAUUCUAAAUAUCAUGCCGGAAUUUAAAAAGCCAAAAUACUAAUUAUUUCUUUGCCGUGUGUAAAGGAAUGUUUUUACAACAGAGGAUUGAGCAUCA
B9: chr11:73401874:73401975:-|3pUTR|ENSG00000054965|unk|FALSE|unique (ssRNA)
RNA: GGGAGUUCUACAGUCCGACGAUCUGCAGGGUUUGUCCUUUACUUAUCUGCCCCUUUCCUAGAAAACUCCUCGUUUCUGAAAUUAGGCAUUAUAUGGUUCCAGGACCCAGCCUUCAAAAUUCCUGGCAGGCCAGCUUCAACAUUCAACAGAGGAUUGAGCAUCA
B10: chr1:40073325:40073426:-|3pUTR|ENSG00000131238|msi1|total|mutant (ssRNA)
RNA: GGGAGUUCUACAGUCCGACGAUCGAGGGAAGCCGCACCCAAAUUAAGUUGCUUAAGAGAGGAAAUGUACAUCUUGUAUAACUCCGGGAGCGAAGAAAAUGCCGGCGCGAAAGUGAAAAGUGAGGCAGCCCGUUCUUCCUAUUCCAACAGAGGAUUGAGCAUCA
B11: ENSG00000143373:stop:overlap|stop_codon|ENSG00000143373|stop_codon|NA|stop_codon (ssRNA)
RNA: GGGAGUUCUACAGUCCGACGAUCACUUCCGCACGCAUGGCAUGGCGUUCAUCAGGGCUCGGCAGGGGGCUGUUGGGGACAACUAGUCUCCAAGGCCUGGGACUGACCAGCCCCUUCCUCUUGGAGCCUGGUUUUCCCUACUGCCAACAGAGGAUUGAGCAUCA
B12: chr15:74955373:74955475:-|3pUTR|ENSG00000178718|unk|total|mutant (ssRNA)
RNA: GGGAGUUCUACAGUCCGACGAUCGGACAGUUUUCCUUUCCCGUUUUCUUUCCCCUGCUUCAGAGGAGCAUCUCUGAGGGUUCCCGCUCUUUUAACACCCCUUUUCCCCCUGCUGGCCCAGAGGGAGACCCAGGACUGAACUCUCAACAGAGGAUUGAGCAUCA
B13: chr2:224470697:224470798:-|3pUTR|ENSG00000036257|msi1|FALSE|bound_elsewhere (ssRNA)
RNA: GGGAGUUCUACAGUCCGACGAUCUGUGACAAACUAAAGUUAAUACAUGAAGCAUUGCAAUAUGGAAUUUUGCACAUUUUUGUUAGCUUUACAUUAUUUGCUGAUACCAACUUUUGGUAGGAAGGAAAACAGGGAAGGUGAUUGCAACAGAGGAUUGAGCAUCA
B14: ENSG00000155189:stop:overlap|stop_codon|ENSG00000155189|stop_codon|NA|stop_codon (ssRNA)
RNA: GGGAGUUCUACAGUCCGACGAUCAUGUGAACACCUGGAUAUAUGGAACCCUACUUGGCUGCCUGUGGGUUACUAUUAAAGCAUAGACAAGUAGCUGUCUCCAGACAGUGGGAUGUGCUACAUUGUCUAUUUUUGGCGGCUGCACAACAGAGGAUUGAGCAUCA
B15: ENSG00000164054:stop:overlap|stop_codon|ENSG00000164054|stop_codon|NA|stop_codon (ssRNA)
RNA: GGGAGUUCUACAGUCCGACGAUCCAGGAUUUGAGCUGGGACAACAAGGAGGAGACAGUGCGGAACAAGCUCCCAGAGGGGCAUAGGAGGAGGAGUGGCUUCCUGGGGUUGUGGCAGCAGGGAGGUGACUGGGGCCAGCUCAGACAACAGAGGAUUGAGCAUCA
B16: chr2:205796522:205796663:+|3pUTR|ENSG00000118257|msi1|total|mutant (ssRNA)
RNA: GGGAGUUCUACAGUCCGACGAUCGUUUUUAUUAAGUGCCUUGAAAAAAUGAAGAAAAAUGUAUUUUCCCUUUAUGUAAAAAUCCGUGAAUAUCUUAUGAAUUAAGGCAUUCCUCUUUCCCUAACCCCGAUGGCUCCAUUCCCACAACAGAGGAUUGAGCAUCA
B17: ENSG00000124766:be:win_1551|3pUTR|ENSG00000124766|bound_else_gene|NA|bound_elsewhere_windowed (ssRNA)
RNA: GGGAGUUCUACAGUCCGACGAUCCAGGGCUGGCUUCGCCCGCGUUCUCGUCGUCGGAUCAAGGAGCGCGGCGGCGUUUUGGACCCGCGCUCCCAUCCCCCACCUUCCCGGGCCGGGGACCCACUCUGCCCAGCCGGAGGGACGCAACAGAGGAUUGAGCAUCA
B18: chr6:73594753:73594854:-|3pUTR|ENSG00000119899|unk|total|mutant (ssRNA)
RNA: GGGAGUUCUACAGUCCGACGAUCGGUUCACAUACCUGCCUGCCCGUCGGGCAACAUGAAGCCGGACAGUUCUGUUGAUUUUUCCGGGCCAUACUAAAGGGAAUGAGCUGAAACAGACCUCCUGAUACCUUUGCUUAAUUAAACCAACAGAGGAUUGAGCAUCA
B19: ENSG00000107863:be:win_3601|CDS|ENSG00000107863|bound_else_gene|NA|bound_elsewhere_windowed (ssRNA)
RNA: GGGAGUUCUACAGUCCGACGAUCAAGGGAAUGGCUGAUAUUGAUAUACAAGAUGAUAAAUGGCGAGAUUUGAAUGUGAUAAGCAGUUUACUAAAAUCCUUCUUCAGAAAACUCCCUGAGCCUCUCUUCACAAAUGAUAAAUAUCAACAGAGGAUUGAGCAUCA
B20: chr17:63832812:63832858:-|3pUTR|ENSG00000108604|msi1_unk|FALSE|overlapping (ssRNA)
RNA: GGGAGUUCUACAGUCCGACGAUCCCAGCCCUGGAGCCUGGAGGGAGACCACCCUCUGGGUCCUUGCUGGGGCCGCAGACACGUAGGCUGGGGUGAGGAGUGUCUGCUGUCACCCUCUACUCUCCAGCUUUAGUCUUAUAAAUGCAACAGAGGAUUGAGCAUCA
B21: chr3:160434497:160434598:+|3pUTR|ENSG00000113810|msi1|total|mutant (ssRNA)
RNA: GGGAGUUCUACAGUCCGACGAUCUUUAUGACCGGUUUAUCCGGGUACUAAAUGCAUUUCAACUUGACCGUUUCAACUUAUGACCGGUUUACCAGGAUGCCGUCCCACUGUUGAGGAGCAUCUAUUCCGGGGUUAAUUACUUUACAACAGAGGAUUGAGCAUCA
B22: chr16:20924479:20924582:+|3pUTR|ENSG00000102897|unk|total|mutant (ssRNA)
RNA: GGGAGUUCUACAGUCCGACGAUCCUACUAUAAAACUAUGUACCACUCUCAGAAUAUUCUCCGGCUUUUUUUUUUUCAAGUUACCGAUUUGCUUAAAGUGAGGUUUUUUGGUGUGUGCUUUUUUGUUGUCUUUUGACCCUUCCACAACAGAGGAUUGAGCAUCA

Each binder was assayed against MSI1 full-length (mouse, UniProt Q61474 1-362) (assay: nsRBNS (natural sequence RNA bind-n-seq); RBNS binding buffer (assumed for nsRBNS): 25 mM Tris pH 7.5, 150 mM KCl, 3 mM MgCl2, 0.01% Triton X-100, 500 ug/ml BSA, 20 U/ml SUPERase-In, 4 C; UNK is unkempt and MSI1 is Musashi-1; names of the RNAs are library labels; protein concentration not given here; high values mean tight binding).
Sequence of UniProt Q61474 (Q61474 whole entry): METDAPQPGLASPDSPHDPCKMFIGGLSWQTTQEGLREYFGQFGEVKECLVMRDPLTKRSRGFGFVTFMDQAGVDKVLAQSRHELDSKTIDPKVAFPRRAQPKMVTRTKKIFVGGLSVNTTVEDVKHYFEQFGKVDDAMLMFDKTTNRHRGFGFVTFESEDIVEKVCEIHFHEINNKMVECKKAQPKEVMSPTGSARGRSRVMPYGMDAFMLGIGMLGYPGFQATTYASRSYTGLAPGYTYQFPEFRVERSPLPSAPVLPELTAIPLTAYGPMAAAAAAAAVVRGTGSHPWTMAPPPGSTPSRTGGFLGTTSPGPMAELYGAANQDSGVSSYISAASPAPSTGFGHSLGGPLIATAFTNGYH
For B1, the binding signal was 0.954 enrichment R. B2 was tested, and the binding signal was 1.01 enrichment R. In the case of B3, the binding signal is reported as 0.428 enrichment R. With B4 the binding signal was 0.91 enrichment R. B5 gave a binding signal of 0.461 enrichment R. In the case of B6, the binding signal is reported as 0.338 enrichment R. B7 showed a binding signal of 0.813 enrichment R. For B8, the binding signal was 0.282 enrichment R. With B9 the binding signal was 0.544 enrichment R. With B10 the binding signal was 0.343 enrichment R. With B11 the binding signal was 0.346 enrichment R. Work on B12 yielded a binding signal of 0.626 enrichment R. With B13 the binding signal was 0.331 enrichment R. B14 gave a binding signal of 0.332 enrichment R. B15 showed a binding signal of 0.519 enrichment R. B16 showed a binding signal of 0.359 enrichment R. Binder B17 has a binding signal of 0.518 enrichment R. B18 gave a binding signal of 0.462 enrichment R. B19 showed a binding signal of 0.64 enrichment R. B20 gave a binding signal of 0.385 enrichment R. With B21 the binding signal was 0.282 enrichment R. B22 gave a binding signal of 0.961 enrichment R.

— paper PMC12136788
